# Out of some 310,000 compounds screened, about 2,200 (0.71%) showed an effect of 50% or more. The effect is printed as a negative number. The list shows a part of the results.
# Molecular target: human ether-à-go-go-related gene (hERG) potassium channel (human, UniProt Q12809)
# Experiment: primary screen, population patch clamp on CHO cells stably expressing hERG
# Sequence of human ether-à-go-go-related gene (hERG) potassium channel (Q12809 whole entry, looked up): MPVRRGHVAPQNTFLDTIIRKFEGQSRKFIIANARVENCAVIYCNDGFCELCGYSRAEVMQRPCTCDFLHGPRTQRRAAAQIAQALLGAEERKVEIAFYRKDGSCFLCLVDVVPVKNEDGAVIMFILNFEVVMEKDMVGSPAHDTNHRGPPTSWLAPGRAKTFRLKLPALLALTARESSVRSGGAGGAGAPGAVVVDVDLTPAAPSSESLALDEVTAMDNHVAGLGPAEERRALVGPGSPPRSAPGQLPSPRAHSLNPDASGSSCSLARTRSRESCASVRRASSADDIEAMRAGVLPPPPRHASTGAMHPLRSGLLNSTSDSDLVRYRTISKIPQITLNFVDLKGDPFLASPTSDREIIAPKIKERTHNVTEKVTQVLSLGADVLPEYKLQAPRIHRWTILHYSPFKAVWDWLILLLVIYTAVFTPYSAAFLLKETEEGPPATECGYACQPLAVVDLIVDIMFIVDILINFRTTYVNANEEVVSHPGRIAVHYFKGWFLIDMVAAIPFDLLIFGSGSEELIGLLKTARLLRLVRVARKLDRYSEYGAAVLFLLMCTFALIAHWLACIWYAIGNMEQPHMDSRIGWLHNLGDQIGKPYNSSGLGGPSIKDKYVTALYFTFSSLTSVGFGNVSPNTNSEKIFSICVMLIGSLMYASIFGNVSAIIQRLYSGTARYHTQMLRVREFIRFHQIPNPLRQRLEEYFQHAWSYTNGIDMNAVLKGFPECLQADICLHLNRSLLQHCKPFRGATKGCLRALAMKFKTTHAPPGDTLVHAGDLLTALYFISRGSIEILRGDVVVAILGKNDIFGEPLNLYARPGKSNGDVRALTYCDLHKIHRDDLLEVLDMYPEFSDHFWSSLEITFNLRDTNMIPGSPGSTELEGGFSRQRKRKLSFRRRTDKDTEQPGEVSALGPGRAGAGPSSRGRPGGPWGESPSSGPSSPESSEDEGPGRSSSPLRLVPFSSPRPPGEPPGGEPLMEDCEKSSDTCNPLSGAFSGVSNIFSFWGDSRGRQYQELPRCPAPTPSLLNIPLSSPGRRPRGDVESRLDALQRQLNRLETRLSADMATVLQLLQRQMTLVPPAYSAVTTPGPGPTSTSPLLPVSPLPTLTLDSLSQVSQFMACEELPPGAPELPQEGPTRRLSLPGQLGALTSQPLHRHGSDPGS
row,Structure (SMILES),"hERG current change (%, negative = inhibition) at 1uM"
1,CN(C)CCNC(C(=O)Nc1cc(Cl)cc(Cl)c1)c1ccccc1 (stereo not drawn),-0.213%
2,O=C1CCCN1CCCNC(=S)Nc1ccc(Br)cc1Cl,9.49%
3,O=C(CN1CCN(S(=O)(=O)c2cccc(F)c2)CC1)Nc1ccnn1C1CCCC1,11.2%
4,CC(Oc1ccccc1)C(=O)Nc1ccccc1F (stereo not drawn),-6.58%
5,O=C(NCc1ccccn1)c1cc(S(=O)(=O)N2CCCCC2)ccc1Cl,5.62%
6,Cc1ccc(/C=N/N2C(=O)C3C(C2=O)C2C=CC3C23CC3)o1 (stereo not drawn),3.63%
7,Cc1ccc(C2=NOC3(CC(=O)N(c4ccc(C)cc4)C3=O)C2)cc1 (stereo not drawn),13%
8,CCCOC(=O)Nc1cc(OC)c(Cl)cc1OC,8.47%
9,c1ccc(C(c2nnnn2C2CCCC2)N2CCN(c3nc4ccccc4s3)CC2)cc1 (stereo not drawn),9.63%
10,O=C(CN1CCN(S(=O)(=O)c2ccc(Br)cc2)CC1)N/N=C/c1ccncc1,-51.8%
11,CN(C)C(=O)CN(C)S(=O)(=O)c1ccc(Cl)cc1,-1.64%
12,COc1ccc(NC(=O)N2CCN(S(C)(=O)=O)CC2)c(OC)c1,10.5%
13,CCC(=O)NC(=S)Nc1ccc(NC(=O)c2ccc(Br)o2)cc1,14.9%
14,CCN(CC)S(=O)(=O)c1ccc2oc(C(=O)NCc3ccc(C)cc3)c(C)c2c1,0.647%
15,Cc1cccnc1NC(=O)CSc1nnc(Cc2ccccc2)o1,8.52%
16,COc1ccccc1C(=O)C1CCCN(Cc2ccc3c(c2)OCCO3)C1 (stereo not drawn),9.1%
17,O=C(Nc1ccccn1)c1cccc(S(=O)(=O)N2CCCc3ccccc32)c1,-3.46%
18,Cc1ccc(N(Cc2ccccc2)C(=O)c2ccc(S(=O)(=O)N3CCOCC3)cc2)cc1,-0.928%
19,CSc1nc2ccc(NS(=O)(=O)c3ccccc3F)cc2s1,14.7%
20,CC1(C)Cc2c(sc3c2c(N)nc(=S)n3Cc2ccc(Br)cc2)CO1,7.9%
21,O=C(CCCn1c(=O)c2sccc2n(CC(=O)NCC2CCCO2)c1=O)NCc1ccco1 (stereo not drawn),5.26%
22,Cn1c(SCC(=O)N2c3ccccc3Sc3ccccc32)nnc1-c1ccco1,2.91%
23,COc1ccc2cc3cc(C(=O)NCc4ccco4)oc3nc2c1,10.3%

row,Structure (SMILES),"hERG current change (%, negative = inhibition) at 1uM"
1,O=C(C1CC(=O)N(c2ccc(F)cc2)C1)N1CCCCC1 (stereo not drawn),8.04%
2,O=C(c1cc([N+](=O)[O-])ccc1Cl)N1CCc2ccccc21,8.54%
3,COCCN1CN=C(Nc2nc3ccccc3s2)NC1,-0.0738%
4,CCCN(Cc1ccco1)S(=O)(=O)c1ccc(OC)c(OC)c1,7.74%
5,O=C(NCN1CCN(c2ccccc2)CC1)c1cnccn1,16.4%
6,CCOC(=O)c1nnsc1-c1ccc(-c2snnc2C(=O)OCC)cc1,-2.7%
7,CCNCc1cc(Br)c(OCC(=O)Nc2ccccc2)c(OC)c1.Cl,5.7%
8,COc1ccc(NC(=O)COC(=O)Cn2nnc3ccccc32)cc1,9.24%
9,CCC1=C(OC(=O)N(CC)CC)N2C(=O)OC(=NCC3CC3)[C@]2(Cc2ccccc2)[C@H]2C1=CC[C@H]1C(=O)N(C)C(=O)[C@H]12,3.55%
10,Cc1nc(N)sc1C(=O)N/N=C/c1c[nH]c2ccccc12,3.83%
11,Cc1ccc(NC(=O)Cc2csc(-c3ccccc3)n2)cc1F,7.58%
12,CCOC(=O)Cc1cc(=O)[nH]c(/N=C(\N)Nc2ccc(C)cc2C)n1,10.8%
13,COc1ccc(N(CC(=O)NCc2ccc3c(c2)OCO3)S(=O)(=O)c2ccccc2[N+](=O)[O-])c(OC)c1,-3.17%
14,COc1ccc(-n2nnnc2SCC#CCO)cc1,-18.2%
15,CCCCN(C(=O)c1nn(C)c(=O)c2ccccc12)c1c(N)n(CCC)c(=O)[nH]c1=O,0.227%
16,COc1ccc(N2CCN(C(=O)CCCCCn3c(=S)[nH]c4cc5c(cc4c3=O)OCO5)CC2)cc1,13.7%
17,CC(C)C(NC(=O)c1ccc(F)cc1)C(=O)Nc1cccnc1 (stereo not drawn),11.3%
18,O=C(c1ccncc1)N1CCc2ccccc2C1,3.22%
19,O=C(CCn1c(=O)sc2ccccc21)NCCN1CCOCC1,14.5%
20,CC(C)c1nc(SCC(=O)NC2CCCCC2)c2ccccc2n1,12.6%
21,CCN1CCN(CC(=O)n2c3c(c4ccccc42)CC(C)CC3)CC1 (stereo not drawn),15.8%
22,O=C(NCc1ccc2c(c1)OCO2)c1cc(COc2c(F)cccc2F)on1,-1.42%
23,c1ccc(-c2cc3c(NCC4COc5ccccc5O4)ncnc3s2)cc1 (stereo not drawn),16%

row,Structure (SMILES),"hERG current change (%, negative = inhibition) at 1uM"
1,Cc1ccc(OCCC(=O)OCC(=O)N2CC(=O)Nc3ccccc32)cc1,9.55%
2,O=C(Nc1cccs1)N1CCN(c2ncccn2)CC1,10.4%
3,O=C(COc1ccc(S(=O)(=O)N2CCOCC2)cc1)NCCCn1ccnc1,4.06%
4,COc1cc(/C=C2\C(=O)ON=C2c2ccccc2)cc(OC)c1OC,6.68%
5,Cc1nc(Nc2nc3ccccc3o2)nc(C)c1C,10%
6,Cc1ccc(N(CC(=O)NCC2CCCO2)C(=O)CCC(=O)Nc2ccccn2)cc1 (stereo not drawn),8.18%
7,CCCCc1n[nH]c(=S)n1Cc1ccc(Cl)cc1,3.48%
8,Cc1cc2c(cc1C)N(C(=O)CSc1nncn1C)C(C)(C)c1ssc(=S)c1-2,-2.99%
9,Cc1cccc(OCC(=O)Nc2ccc(C(=O)Nc3ccccc3C(=O)O)cc2)c1C,4%
10,NC(=O)N=Nc1c(O)n(Cc2ccccc2)c2ccc(Br)cc12,4.36%
11,Fc1ccccc1-c1nc(NCCCN2CCOCC2)c2ccccc2n1,-9.4%
12,C=CCOc1ccccc1/C=C/C(=O)O,-8.5%
13,CCC1(C)Cc2ccccc2-c2c1c(=O)n(-c1ccc(C)cc1)c1nnnn21 (stereo not drawn),8.67%
14,COc1ccc(S(=O)Cc2ccc(C(=O)NC3CC3)o2)cc1 (stereo not drawn),13.7%
15,COc1ccccc1C(=O)COC(=O)c1ccc(Cl)nc1,3.01%
16,Brc1ccc(N=Nc2ccc3ccccc3n2)cc1,3.01%
17,CC1CCCCC12NC(=O)N(CC(=O)NCCc1ccc(F)cc1)C2=O (stereo not drawn),-1.03%
18,CCCNc1nc(N2CCOCC2)nc(N2CCOCC2)n1,-8.77%
19,CCc1ccccc1NC(=O)Nc1ccc(F)cc1F,9.29%
20,O=C(CSc1nnc2ccc3ccccc3n12)N1CCOCC1,7.04%
21,Cc1ccc2[nH]c(=O)c3cc(C(=O)N4CCN(C(=O)c5ccco5)CC4)sc3c2c1,7.63%
22,CC(c1ccccc1)n1cc(C(=O)NCc2ccccn2)nn1 (stereo not drawn),11.4%
23,COc1ccc2nc3oc(C(=O)NCCCOC(C)C)cc3cc2c1,15.4%

row,Structure (SMILES),"hERG current change (%, negative = inhibition) at 1uM"
1,COc1ccc(CCNC(=O)CSc2nnc(Cn3c(=O)sc4ccccc43)n2C)cc1OC,2.35%
2,Cc1nnnn1/C(=C\c1ccccc1)C(=O)OCC(=O)NC(C)(C)C,-3.57%
3,COc1ccc(CCCC(=O)N/N=C/c2cccc(OC)c2O)cc1C,6.36%
4,COC(=O)CC(c1ccccc1F)N1Cc2ccccc2C1=O (stereo not drawn),5.86%
5,CC1(C)Cc2c(cnn2-c2ccccc2)C(NC(=O)CCCN2CCCC2=O)C1 (stereo not drawn),12.4%
6,Cn1nccc1NC(=O)Nc1cccc(Cl)c1Cl,14.7%
7,CCOc1ccc2nc(SCC(=O)NCc3ccc(OC)cc3)[nH]c2c1,12%
8,Oc1ccc(Br)cc1-c1cc(-c2ccco2)[nH]n1,12.3%
9,CCn1c(Sc2nc(C)nc3scc(-c4cccs4)c23)n[nH]c1=O,7.46%
10,COc1ccc2cc(C(=O)NCCO)sc(=O)c2c1OC,-3.36%
11,CCOC(=O)CSc1ncnc2c1c(-c1ccccc1)cn2-c1ccc(OC)cc1,10.9%
12,CC(=O)CSc1nnc(NC(=O)CCc2ccccc2)s1,10.7%
13,CCOC(=O)c1cnc2ccc(OC)cc2c1NCCc1ccc(OC)c(OC)c1,-69.5%
14,Cc1ccc(-c2cc(C(=O)NCC3CCCO3)no2)cc1 (stereo not drawn),8.83%
15,CC1(NC(=O)c2cc(Cl)nc3ccccc23)CCS(=O)(=O)C1 (stereo not drawn),9.68%
16,COc1cc(/C=C2\SC(=S)N(NC(=O)c3ccc(O)cc3)C2=O)ccc1O,18.8%
17,CCn1ccc(C(=O)Nc2ccsc2C(=O)OC)n1,-4.01%
18,COc1ccc(OC)c(C(=O)NC(CC(N)=O)c2ccc(NCCN3CCOCC3)c([N+](=O)[O-])c2)c1 (stereo not drawn),16.1%
19,O=C(C1CCC(CNS(=O)(=O)c2cccc3cccnc23)CC1)N1CCCC1 (stereo not drawn),14.3%
20,CCCn1c(C(O)c2ccc3c(c2)OCO3)nc2ccccc21 (stereo not drawn),7.08%
21,Cc1nn(-c2cc(N3CCNCC3)ccc2[N+](=O)[O-])c(=O)c2ccccc12,8.18%
